Measured values as given in ChEMBL document CHEMBL4888484, “Replenishing the malaria drug discovery pipeline: Screening and hit evaluation of the MMV Hit Generation Library 1 (HGL1) against asexual blood stage Plasmodium falciparum ,using a nano luciferase reporter read-out” (2022).
“And” between values parts separate entries of the source, which are not always exact repeats. Identical values can stand only once. The whole screen tested about 150,000 compounds, of which about 540 (0.36%) showed an effect of 50% or more. This is one part of the list.

System: Plasmodium falciparum
Test: Primary screen in NF54 nanoGlo assay, in single point, at 2uM, 72h; a lower Z score goes with more inhibition
Type: functional, Erythrocyte
Details: timepoint 72 hour

SMILES | % Inhibition | Z score | % Inhibition (2 µM)
CC1(C)NC(=O)N(CC2(c3ccc(F)cc3F)CC2)C1=O | -4% | 0.43 | 
CCN(CC)CCN(CCC(F)(F)F)CC(=O)Nc1ccc(C)cc1Cl | -2% | 0.23 | 
CCC1(CC)CCN(C(=O)c2nc(-c3cnn(C)c3)oc2C)CC1 | 0% | -0.06 | 
COc1ccccc1CNC(=O)CC1CCN(C(=O)c2ccc3oc(-c4ccc(C)cc4)nc3c2)CC1 | -8% | 0.9 | 
CC(=O)OC(C)(C)C(=O)N[C@@H](C)Cc1ccc2c(c1)CCO2 | -5% | 0.62 | 
O=C(NCc1ccccc1F)[C@H]1CCCN(c2nnc3c(Cl)cccn23)C1 | -4% | 0.39 | 
C[C@H](Oc1ccc(C(=O)N2CCNC(=O)C2)cn1)c1ccccc1 | -12% | 1.14 | 
Cc1nnc(NCCc2ccc(Cl)cc2)[nH]c1=O | -5% | 0.72 | 
CCc1noc(-c2ccn3c(CNC(=O)CCC4CCCC4)nnc3c2)n1 | -13% | 2.46 | 
CCOc1ccc(N2CCN(CCn3cnc4ccccc4c3=O)CC2)cc1 | 31% | -3.46 | 
CC(C)(C)OC(=O)N[C@@H]1C=CC[C@@H](C(=O)O)C1 | 3% | -0.44 | 
O=C(c1ccccc1-c1nnn[nH]1)N(CCCO)Cc1ccc(Cl)cc1 | -2% | 0.26 | 
Cc1nnc2n1CC1CCC(C2)N1Cc1ccc(C(F)(F)F)cc1 (stereo not given) | -5% | 0.55 | 
CC(C)NC(=O)N(CC(=O)N1CCn2cccc2[C@H]1c1cccc(F)c1)C1CC1 | 35% | -4.73 | 
O=C(O)[C@@H]1CCCc2sc(Nc3ccccc3)nc21 | -4% | 0.63 | 
O=C(N[C@H]1CCN(Cc2ccccn2)C[C@@H]1O)c1cc(F)ccc1F | -20% | 2.55 | 
O=C1CCN(C(=O)c2cc3n(n2)CCCO3)CCCCCN1 | -13% | 2.02 | 
Fc1ccc2nc(CN3CCCC[C@H]3c3nccs3)ccc2c1 | -3% | 0.55 | 
C#CCCC1(CCC(=O)N2CC(Cc3ccccc3)C2)N=N1 | -16% | 2.05 | 
Cc1ccc(CNC(=O)CC2CCN(C(=O)c3cc4ccccc4[nH]3)CC2)o1 | -3% | 0.35 | 
O=C(c1cc(-c2ccco2)[nH]n1)N1CC[C@@](F)(CO)C1 | -18% | 2.74 | 

SMILES | % Inhibition | Z score | % Inhibition (2 µM)
CCc1ccc(-c2nc(C)c(C(=O)N3CCCO[C@@H](CC)C3)s2)cc1 | -3% | 0.33 | 
COc1cc(C(=O)N2CCCCC2)cc(OC)c1OCc1ccccc1 | -1% | 0.24 | 
CN(C)C(=O)c1n[nH]c2c1CN(Cc1cc(O)c3cc(F)ccc3n1)CC2 | 4% | -0.57 | 
Cc1ccccc1C(=O)NCCC(=O)N1CCN(Cc2ccccc2)C(C)(C)C1 | -10% | 1.18 | 
Cc1cc(C)cc(Nc2[nH]nnc2C(=O)NCc2ccc(Cl)cc2)c1 | 0% | 0.03 | 
CN(C)S(=O)(=O)N(CC#N)Cc1ccccc1C(F)(F)F | -9% | 1.2 | 
COCCn1nc2n(c1=O)CCC1(CC2)CCN(C(=O)c2cccc(C#N)c2)CC1 | 2% | -0.22 | 
O=C(Nc1ccc(OC(F)(F)F)cc1)C(F)F | -14% | 2.13 | 
Cc1cc(C(=O)N2CCC(Cc3nc4ccccc4[nH]3)CC2)[nH]n1 | -18% | 1.81 | 
Cc1ccnc(NC(=O)c2ccccc2C(=O)c2ccc(Cl)cc2)c1 | -38% | 4.5 | 
Cc1ccccc1OCC(=O)N[C@H](c1ccccc1)C1CC1 | -13% | 1.13 | 
COc1cccc2c1CCc1c(C(=O)NC[C@@H]3CCCN4CCCC[C@H]34)n[nH]c1-2 | 5% | -0.63 | 
CCO[C@@H](C)C(=O)NCc1cnc2c(c1)CCC2 | -21% | 2.12 | 
COc1ccccc1CNC(=O)c1nnn2c1CO[C@H](c1ccccc1)C2 | -6% | 0.72 | 
CC(=O)N1CC[C@H](CNC(=O)Nc2ccc(Cl)cc2)C1 | 0% | 0.07 | 
NC(=O)c1cc(Cl)ccc1OCC1(O)CCCCC1 | 8% | -1.53 | 
CCn1ncc(CNC(=O)NC2CC(=O)N(C3CC3C)C2)n1 (stereo not given) | 18% | -2.26 | 
Cc1cnn(C2CN(Cc3nc4c(F)cccc4[nH]3)C2)c1 | 9% | -1.74 | 
COc1nc2c(cc1CNC1CCN(C(C)C)CC1)C(=O)N(C1CCCC1)C2 | 6% | -0.77 | 
COCCN1CC[C@H](CNCc2ccccc2OCCCCn2ccnc2)C1 | 10% | -1.22 | 
Cc1nn(-c2ccccc2)c2nc3[nH]c(=O)[nH]c(=O)c3c(-c3ccc4c(c3)OCO4)c12 |  |  | -13% and 6%

SMILES | % Inhibition | Z score | % Inhibition (2 µM)
O=C(NCCc1ccco1)c1cccc(-n2nnc3cccnc32)c1 | -16% | 3.1 | 
O=C(NCc1ccccc1Cl)c1ccc(Cn2cnc3ccccc32)o1 | -2% | 0.47 | 
Cc1ccc(CN(C(=O)C2CC(=O)NC(=O)C2)c2ccc(F)cc2)o1 | 0% | -0.01 | 
COc1ccc(CCNC(=O)c2ccc3n[nH]c(=O)n3c2)cc1OC | -6% | 0.77 | 
CN1CCC2(CC1)CN(C(=O)c1nscc1Br)[C@@H]1COC[C@@H]12 | 0% | -0.03 | 
O=C(Nc1nnc([C@H]2CC(=O)N(c3ccc(OC(F)(F)F)cc3)C2)o1)c1ccc(Cl)cc1 | -6% | 0.93 | 
Cc1ccsc1CN(Cc1cccc(O)c1)Cc1ccccn1 | 0% | 0.05 | 
CCc1noc(CN(C)Cc2c(C)nn(CCO)c2C)n1 | -25% | 2.68 | 
Cc1nc(C(F)(F)F)ccc1NC(=O)NCc1ccccc1 | -14% | 1.64 | 
CC[C@](C)(NC(=O)c1ccc(Cl)cc1F)C(=O)OC | 7% | -1.07 | 
Cc1ccc(C(=O)N[C@H]2CCOC3(CC(C(=O)O)C3)C2)cc1C (stereo not given in full) | 6% | -0.93 | 
CC(C)C(=O)N1C[C@@H]2CN(C(=O)Cc3cccc(F)c3)C[C@]2(CO)C1 | -6% | 0.76 | 
COC1C(C)C(NC(=O)[C@H](C)NS(=O)(=O)c2c(C)noc2C)C1(C)C (stereo not given in full) | -5% | 0.63 | 
COc1cc(C[C@@]2(CCC(=O)N3CCN(C(=O)c4ccccc4OC)CC3)CCC(=O)N2)ccc1F | 7% | -1.08 | 
Cc1cccc(CS(=O)(=O)N2C[C@H](c3cnn(C)c3)C(C)(C)C2)c1 | 19% | -2.46 | 
CCc1ccc(S(=O)(=O)N2CCOC[C@H]2c2noc(-c3cnn(C)c3)n2)cc1 | 3% | -0.32 | 
CCCc1nc(N2CCC3(CCNC(=O)CC3)CC2)no1 | -5% | 0.63 | 
COc1ccc(Cl)cc1N(C)C(=O)Nc1cn(CC(C)C)c(=O)c2ccccc12 | 0% | 0.04 | 
O=C1CN(C(=O)C2CCN(S(=O)(=O)c3ccc(Cl)cc3)CC2)CCN1 | 9% | -1.47 | 
COCc1nc(C(=O)N2CCCCC[C@H]2c2ccc(C)o2)cs1 | 0% | -0.04 | 
C[C@H]1CCC(=O)N1c1ccc(NC(=O)CCCC(=O)c2ccccc2)cc1 | -14% | 1.43 | 

SMILES | % Inhibition | Z score | % Inhibition (2 µM)
CCCCNc1cc(Cl)ccc1CS(C)(=O)=O | 1% | -0.07 | 
Cc1ccc(/N=C(NC2CCc3ccccc32)/C(=N\c2ccc(C)cc2)NC2CCc3ccccc32)cc1 (stereo not given) | -27% | 3.18 | 
Cc1nc2c(c(=O)n1C)CN(C(=O)[C@@H]1Cc3ccccc3S(=O)(=O)N1)C2 | 8% | -1.47 | 
COC(=O)c1ccc(NC2CCOC(c3ccccc3)C2)nn1 (stereo not given) | 2% | -0.49 | 
O=S(=O)(NCc1cn2ccsc2n1)C1C[C@@H]2CC[C@H]1C2 (stereo not given in full) | 3% | -0.44 | 
O=C(OCCc1cn[nH]c1)c1c[nH]nc1-c1c(F)cccc1F | 0% | -0.02 | 
CCCCN(CCCC)C(=O)c1cc2n(n1)C[C@@H](O)CNC2=O | -12% | 1.57 | 
O=C(Nc1ccc(Oc2nnn[nH]2)cc1)c1ccc2scnc2c1 | -9% | 1.62 | 
CCc1noc(C2CCC(NCC3CCC4(CC3)OCCO4)CC2)n1 (stereo not given) | -5% | 0.67 | 
CCn1nnnc1-c1cccc(NC(=O)c2ccncc2Cl)c1 | -6% | 0.88 | 
CCNC(=O)N1CCC(COC)CC1 | -17% | 2.5 | 
O=C([C@@H]1CC=CCC1)N1CC(C(F)F)C1 | -16% | 2.06 | 
COc1cccc(NC(=O)Nc2cccc(-n3nc(OCC(C)C)nc3-c3ccco3)c2)c1 | -13% | 1.24 | 
N#Cc1cccc([C@@H](CC(=O)NCCN2CCCC2)c2cn(Cc3ccc(F)cc3)c3ccccc23)c1Cl | -5% | 0.63 | 
COc1ccccc1Cc1nc(-c2cc(C)n(C)n2)n(C(C)C)n1 | -3% | 0.65 | 
Cc1cc2n(n1)CCN(Cc1cc(O)n3nc(C)nc3n1)C2 | -8% | 1.16 | 
CCN1C[C@@H](c2ccccc2)CC2(CCN(Cc3ccc(C(=O)NC)o3)CC2)C1 | -3% | 0.56 | 
CCCN(C(=O)CCc1c[nH]c2ccccc12)[C@H]1CCc2ccccc2C1 | -1% | 0.08 | 
CC1Cc2ccccc2N1C(=O)C1CCCCC1C(=O)NCc1ccoc1 (stereo not given) | 2% | -0.17 | 
O=C(NCCCc1ncc[nH]1)c1ccc2c(c1)CCCC2 | -5% | 0.87 | 
